Five molecules from article PMC10962199 can be followed below.

These are yes or no findings as the source states them, for the method shown. In cells and extracts the contact can be indirect. Some results given as binding are weak or reduced against the parent protein; the word gives no strength. Tags and fused reporters may be left off the sequences shown.

Assay [1] has as its target T1, Cdc20^Slp1 (Slp1-HA) (S. pombe) (UniProt P78972).
T1 sequence: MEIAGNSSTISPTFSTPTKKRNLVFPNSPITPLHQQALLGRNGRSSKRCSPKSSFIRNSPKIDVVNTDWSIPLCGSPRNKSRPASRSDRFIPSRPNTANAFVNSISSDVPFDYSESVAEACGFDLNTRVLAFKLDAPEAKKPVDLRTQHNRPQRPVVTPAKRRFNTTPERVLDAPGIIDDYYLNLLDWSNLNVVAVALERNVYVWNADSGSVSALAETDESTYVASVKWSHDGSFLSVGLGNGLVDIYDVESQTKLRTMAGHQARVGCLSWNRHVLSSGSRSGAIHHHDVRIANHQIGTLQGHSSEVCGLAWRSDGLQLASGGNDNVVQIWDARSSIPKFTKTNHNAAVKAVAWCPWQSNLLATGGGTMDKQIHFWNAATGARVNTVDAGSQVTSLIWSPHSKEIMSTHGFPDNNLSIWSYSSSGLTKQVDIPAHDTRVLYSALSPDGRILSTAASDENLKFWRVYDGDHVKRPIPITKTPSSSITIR
The experiment in a line: co-IP; mitotically arrested nda3-KM311 cells (HU pre-synchronised, 6 h at 18 °C), native extracts; which partner was precipitated is not stated for these panels (Fig. 3A, 3C, 3F); untagged strains as negative controls.

Assay [2] deals with T2, Cdc20^Slp1-DS (Slp1-DS-HA), MAPK docking site mutant (S. pombe) (UniProt P78972).
T2 sequence: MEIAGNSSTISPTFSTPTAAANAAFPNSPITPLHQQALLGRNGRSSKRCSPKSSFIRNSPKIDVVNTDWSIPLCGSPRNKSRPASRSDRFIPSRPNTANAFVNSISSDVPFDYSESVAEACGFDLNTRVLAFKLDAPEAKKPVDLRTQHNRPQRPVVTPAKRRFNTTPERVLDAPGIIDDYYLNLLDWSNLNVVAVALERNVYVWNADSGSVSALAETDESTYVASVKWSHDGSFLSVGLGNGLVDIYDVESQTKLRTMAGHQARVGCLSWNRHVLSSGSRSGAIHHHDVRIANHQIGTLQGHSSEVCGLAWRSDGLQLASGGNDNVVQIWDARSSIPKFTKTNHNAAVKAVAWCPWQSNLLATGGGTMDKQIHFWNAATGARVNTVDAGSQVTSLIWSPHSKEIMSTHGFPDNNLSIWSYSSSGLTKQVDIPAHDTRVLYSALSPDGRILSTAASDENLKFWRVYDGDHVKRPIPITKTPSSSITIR
The assay is described as above.

In assay [3] the target is T3, MAPK Pmk1 (Pmk1-GFP) (S. pombe) (UniProt Q92398).
T3 sequence: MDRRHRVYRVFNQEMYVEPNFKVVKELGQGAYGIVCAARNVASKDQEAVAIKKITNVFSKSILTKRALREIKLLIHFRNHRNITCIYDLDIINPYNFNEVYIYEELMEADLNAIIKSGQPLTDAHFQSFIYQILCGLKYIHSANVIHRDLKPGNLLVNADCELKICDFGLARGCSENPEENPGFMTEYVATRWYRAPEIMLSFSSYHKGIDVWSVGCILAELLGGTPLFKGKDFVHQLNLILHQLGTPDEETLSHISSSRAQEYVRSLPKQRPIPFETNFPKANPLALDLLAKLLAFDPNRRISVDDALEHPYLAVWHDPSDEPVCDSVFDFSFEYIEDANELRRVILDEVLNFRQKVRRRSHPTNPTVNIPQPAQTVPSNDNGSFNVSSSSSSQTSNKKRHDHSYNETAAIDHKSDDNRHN
The description is as above.

Assay [4] has as its target T4, APC/C component Apc4 (Apc4-TAP) (S. pombe) (UniProt O42839).
T4 sequence: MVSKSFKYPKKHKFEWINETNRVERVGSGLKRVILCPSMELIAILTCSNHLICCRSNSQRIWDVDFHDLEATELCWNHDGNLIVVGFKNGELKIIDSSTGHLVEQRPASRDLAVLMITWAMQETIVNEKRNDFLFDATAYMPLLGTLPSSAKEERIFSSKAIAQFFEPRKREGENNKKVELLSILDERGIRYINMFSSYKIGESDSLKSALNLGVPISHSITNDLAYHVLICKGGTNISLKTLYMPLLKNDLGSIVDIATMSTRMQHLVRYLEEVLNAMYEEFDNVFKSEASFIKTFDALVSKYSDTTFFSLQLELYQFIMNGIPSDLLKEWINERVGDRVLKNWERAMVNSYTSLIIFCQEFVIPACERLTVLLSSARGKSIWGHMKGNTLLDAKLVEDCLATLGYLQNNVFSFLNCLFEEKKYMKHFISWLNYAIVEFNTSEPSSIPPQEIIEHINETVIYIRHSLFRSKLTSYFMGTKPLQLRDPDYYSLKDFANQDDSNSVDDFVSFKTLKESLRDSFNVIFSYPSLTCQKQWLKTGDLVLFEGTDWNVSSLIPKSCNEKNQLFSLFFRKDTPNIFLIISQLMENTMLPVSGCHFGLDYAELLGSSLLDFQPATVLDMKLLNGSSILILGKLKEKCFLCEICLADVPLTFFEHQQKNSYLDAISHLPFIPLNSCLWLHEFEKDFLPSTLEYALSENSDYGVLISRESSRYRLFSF
In words: co-IP; Apc4-TAP immunoprecipitated from control and pmk1Δ cells, nda3-KM311 background after 6 h of mitotic arrest; immunoblot for Mad3-GFP. Background: Immunoblotting shows a protein as a band on a membrane.

For assay [5], the target named is T1, Cdc20^Slp1 (Slp1-HA) (S. pombe). In words: co-IP; Slp1-HA immunoprecipitated with anti-HA from native S. pombe extracts, partner detected by immunoblot; washes with 50 mM Tris-HCl pH 7.5, 500 mM NaCl, 0.1% Nonidet P-40; cells from a mitotic block (wild type, pmk1Δ or pek1Δ background) or asynchronous cells treated with 0.6 M KCl for 0, 5, 15 and 30 min.

B1: Mad2 (protein, UniProt O14417 1-203)
chain: MSSVPIRTNFSLKGSSKLVSEFFEYAVNSILFQRGIYPAEDFKVVRKYGLNMLVSVDEEVKTYIRKIVSQLHKWMFAKKIQKLILVITSKCSGEDLERWQFNVEMVDTADQFQNIGNKEDELRVQKEIQALIRQITATVTFLPQLEEQCTFNVLVYADKDSEVPTDWVDSDPRILRDAEQVQLRSFSTSMHKIDCQVAYRVNP
On to B1, for which the binding result in assay [1] and in assay [2] was “binds” throughout.

B2: Cdc20^Slp1 (Slp1-HA) (protein, UniProt P78972 1-488)
chain: MEIAGNSSTISPTFSTPTKKRNLVFPNSPITPLHQQALLGRNGRSSKRCSPKSSFIRNSPKIDVVNTDWSIPLCGSPRNKSRPASRSDRFIPSRPNTANAFVNSISSDVPFDYSESVAEACGFDLNTRVLAFKLDAPEAKKPVDLRTQHNRPQRPVVTPAKRRFNTTPERVLDAPGIIDDYYLNLLDWSNLNVVAVALERNVYVWNADSGSVSALAETDESTYVASVKWSHDGSFLSVGLGNGLVDIYDVESQTKLRTMAGHQARVGCLSWNRHVLSSGSRSGAIHHHDVRIANHQIGTLQGHSSEVCGLAWRSDGLQLASGGNDNVVQIWDARSSIPKFTKTNHNAAVKAVAWCPWQSNLLATGGGTMDKQIHFWNAATGARVNTVDAGSQVTSLIWSPHSKEIMSTHGFPDNNLSIWSYSSSGLTKQVDIPAHDTRVLYSALSPDGRILSTAASDENLKFWRVYDGDHVKRPIPITKTPSSSITIR
As for B2, the binding entry in assay [3] is “binds”.

B3: Cdc20^Slp1-DS (Slp1-DS-HA), MAPK docking site mutant (protein, UniProt P78972 1-488)
chain: MEIAGNSSTISPTFSTPTAAANAAFPNSPITPLHQQALLGRNGRSSKRCSPKSSFIRNSPKIDVVNTDWSIPLCGSPRNKSRPASRSDRFIPSRPNTANAFVNSISSDVPFDYSESVAEACGFDLNTRVLAFKLDAPEAKKPVDLRTQHNRPQRPVVTPAKRRFNTTPERVLDAPGIIDDYYLNLLDWSNLNVVAVALERNVYVWNADSGSVSALAETDESTYVASVKWSHDGSFLSVGLGNGLVDIYDVESQTKLRTMAGHQARVGCLSWNRHVLSSGSRSGAIHHHDVRIANHQIGTLQGHSSEVCGLAWRSDGLQLASGGNDNVVQIWDARSSIPKFTKTNHNAAVKAVAWCPWQSNLLATGGGTMDKQIHFWNAATGARVNTVDAGSQVTSLIWSPHSKEIMSTHGFPDNNLSIWSYSSSGLTKQVDIPAHDTRVLYSALSPDGRILSTAASDENLKFWRVYDGDHVKRPIPITKTPSSSITIR
For B3, the binding result in assay [3] was “no binding”.

B4: Mad3 (Mad3-GFP) (protein, UniProt O59767 1-310)
chain: MEPLDAGKNWVHMDVIEQSKENIEPRKAGHSASALAKSSSRNHTEKEVAGLQKERMGHERKIETSESLDDPLQVWIDYIKWTLDNFPQGETKTSGLVTLLERCTREFVRNPLYKDDVRYLRIWMQYVNYIDEPVELFSFLAHHHIGQESSIFYEEYANYFESRGLFQKADEVYQKGKRMKAKPFLRFQQKYQQFTHRWLEFAPQSFSSNTNSVNPLQTTFESTNIQEISQSRTKISKPKFKFSVYSDADGSGKDGQPGTWQTLGTVDQRRKENNISATSWVGEKLPLKSPRKLDPLGKFQVHCDEEVSKE
As for B4, the binding result in assay [4], in assay [1], in assay [2] and in assay [5] was “binds” throughout.

B5: MAPK Pmk1 (Pmk1-GFP) (enzyme, UniProt Q92398 1-422)
chain: MDRRHRVYRVFNQEMYVEPNFKVVKELGQGAYGIVCAARNVASKDQEAVAIKKITNVFSKSILTKRALREIKLLIHFRNHRNITCIYDLDIINPYNFNEVYIYEELMEADLNAIIKSGQPLTDAHFQSFIYQILCGLKYIHSANVIHRDLKPGNLLVNADCELKICDFGLARGCSENPEENPGFMTEYVATRWYRAPEIMLSFSSYHKGIDVWSVGCILAELLGGTPLFKGKDFVHQLNLILHQLGTPDEETLSHISSSRAQEYVRSLPKQRPIPFETNFPKANPLALDLLAKLLAFDPNRRISVDDALEHPYLAVWHDPSDEPVCDSVFDFSFEYIEDANELRRVILDEVLNFRQKVRRRSHPTNPTVNIPQPAQTVPSNDNGSFNVSSSSSSQTSNKKRHDHSYNETAAIDHKSDDNRHN
Turning to B5, in assay [5], the binding entry is “binds”.
